Some of the results follow.
tested on: S. aureus RN4220; experiment: growth inhibition call (relative growth <= 0.2); settings: 50 µM

Compound | growth inhibition call
Cc1ccc(-c2ccc3c(c2)O[C@H](CN(C)C(=O)NC(C)C)[C@@H](C)CN([C@H](C)CO)S3(=O)=O)cc1 | inactive
CC#CCOC(=O)C1=CCCN(C)C1 | inactive
C[C@H](CO)N1C[C@H](C)[C@@H](CN(C)S(=O)(=O)c2ccc(Cl)cc2)OCCCC[C@H](C)Oc2ccc(NC(=O)c3ccccc3)cc2C1=O | inactive
C[C@H](CO)N1C[C@H](C)[C@@H](CN(C)Cc2ccc(Oc3ccccc3)cc2)Oc2c(NC(=O)c3ccc(-c4nccs4)cc3)cccc2C1=O | inactive
C[C@@H]1CN([C@@H](C)CO)C(=O)Cc2cc(NC(=O)Nc3ccc(C(F)(F)F)cc3)ccc2O[C@@H]1CN(C)Cc1ccc(C(F)(F)F)cc1 | inactive
C=CC1=C(C(=O)O)N2C(=O)[C@@H](NC(=O)/C(=N\O)c3csc(N)n3)[C@H]2SC1 | active
O=C(CN1CCOCC1)N[C@@H]1CC[C@H](CCNC(=O)Nc2cc(F)ccc2F)O[C@H]1CO | inactive
C[C@H](CO)N1C[C@H](C)[C@H](CN(C)C(=O)Nc2ccc(F)cc2)OCc2ccccc2-c2ccccc2C1=O | inactive
NC1CONC1=O (configuration not stated) | inactive
COc1ccc(S(=O)(=O)N(C)C[C@@H]2OCCCC[C@@H](C)Oc3ccc(NC(=O)Nc4ccccc4)cc3C(=O)N([C@H](C)CO)C[C@H]2C)cc1 | inactive
CC(C)N1C[C@@H](CN(C)Cc2ccc(Cl)c(Cl)c2)Oc2c(NC(=O)c3ccncc3)cccc2C1=O | inactive
C[C@H]1CCCCO[C@H](CN(C)Cc2ccc(C(F)(F)F)cc2)[C@@H](C)CN([C@@H](C)CO)C(=O)c2cc(NS(=O)(=O)c3cccs3)ccc2O1 | inactive
C[C@H](CO)N1C[C@H](C)[C@@H](CN(C)Cc2ccc(C(F)(F)F)cc2)OCCCC[C@H](C)Oc2ccc(NC(=O)NC3CCCCC3)cc2C1=O | inactive
C[C@H](CO)N1C[C@H](C)[C@@H](CN(C)C(=O)C2CCC2)Oc2cc(-c3ccc(C(=O)N(C)C)cc3)ccc2S1(=O)=O | inactive
C[C@H](CO)N1C[C@H](C)[C@@H](CN(C)Cc2ccncc2)Oc2c(NC(=O)C3CCOCC3)cccc2C1=O | inactive
Nc1ccc(S(=O)(=O)Nc2ccc(Cl)nn2)cc1 | inactive

Compound | growth inhibition call
O=C(CN1CCOCC1)NCC[C@@H]1CC[C@@H](NC(=O)Cc2ccccn2)[C@H](CO)O1 | inactive
C[C@@H]1CN([C@H](C)CO)C(=O)c2cccc(NS(C)(=O)=O)c2O[C@@H]1CN(C)C(=O)NC1CCCCC1 | inactive
C[C@H]1CCCCO[C@@H](CN(C)Cc2ccncc2)[C@@H](C)CN([C@@H](C)CO)C(=O)c2cc(NC(=O)Nc3cccc4ccccc34)ccc2O1 | inactive
Cc1noc(C)c1NC(=O)Nc1ccc2c(c1)CC(=O)N([C@@H](C)CO)C[C@H](C)[C@@H](CN(C)S(=O)(=O)c1ccccc1)O2 | inactive
Cc1ccc(S(=O)(=O)N(C)C[C@H]2Oc3ccc(NC(=O)Cn4cnnn4)cc3CC(=O)N([C@H](C)CO)C[C@@H]2C)cc1 | inactive
C[C@@H]1CN([C@H](C)CO)C(=O)Cc2cc(NC(=O)CCC(F)(F)F)ccc2O[C@@H]1CN(C)S(=O)(=O)c1cn(C)cn1 | inactive
COc1ccc2c3c([nH]c2c1)[C@@H](CO)N(Cc1cc(ccc1F)F)C[C@]13CCN(CC1)C(=O)CN(C)C | inactive
C[C@@H]1CN([C@@H](C)CO)C(=O)c2cc(NC(=O)NC3CCCCC3)ccc2O[C@@H]1CN(C)Cc1ccc(Oc2ccccc2)cc1 | inactive
CN(C)c1ccsc1C(=O)NN | inactive
Cn1c(=O)n(C)c2cc(CO)ccc21 | inactive
C[C@H](CO)N1C[C@H](C)[C@@H](CN(C)S(=O)(=O)c2ccc(Cl)cc2)Oc2ccc(NC(=O)CCN3CCOCC3)cc2C1=O | inactive
C[C@H](CO)N1C[C@H](C)[C@@H](CN(C)C(=O)Nc2ccc(C(F)(F)F)cc2)Oc2c(NC(=O)C3CCCCC3)cccc2C1=O | inactive
COc1ccc(S(=O)(=O)N(C)C[C@@H]2Oc3cc(C#CC4CCCC4)ccc3S(=O)(=O)N([C@@H](C)CO)C[C@H]2C)cc1 | inactive
C[C@H](CO)N1C[C@H](C)[C@H](CN(C)Cc2ccc(C(=O)O)cc2)Oc2ncc(C#CCN(C)C)cc2C1=O | inactive
C[C@H]1CN([C@@H](C)CO)C(=O)c2cc(NC(=O)Nc3ccc(F)cc3)ccc2O[C@H]1CN(C)Cc1ccc(Oc2ccccc2)cc1 | inactive
C[C@H](CO)N1C[C@H](C)[C@H](CN(C)C(=O)Nc2cccc3ccccc23)Oc2ccc(NS(=O)(=O)c3cccs3)cc2C1=O | inactive
